Measured values as given in PubChem BioAssay AID1745853 (National Center for Advancing Translational Sciences (NCATS), 2022).
The other results are listed elsewhere or left out. Further columns of the screen follow, without active or inactive calls.

Legend:
Test in all cases: Primary Screen for Target Class Profiling of Small Molecule Inhibitors of Methyltransferases
[1] = molecular target: Glycine N-methyltransferase (Homo sapiens) (UniProt Q14749); conditions: purified enzyme, MTase-Glo SAH luminescence; measured here: GNMT inhibition; at 40 µM; stronger effect = lower value
Summary of the method: (§1)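 Each enzyme was reacted with SAM and its substrate, with compounds tested once at 40 uM; SAH formed was read by MTase-Glo luminescence.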

[2] = molecular target: Guanidinoacetate N-methyltransferase (Homo sapiens) (UniProt Q14353); conditions: purified enzyme, MTase-Glo SAH luminescence; measured here: GAMT inhibition; at 40 µM; stronger effect = lower value
Summary of the method: as §1

[3] = molecular target: Histamine N-methyltransferase (Homo sapiens) (UniProt P50135); conditions: purified enzyme, MTase-Glo SAH luminescence; measured here: HNMT inhibition; at 40 µM; stronger effect = lower value
Summary of the method: as §1

[4] = molecular target: Nicotinamide N-methyltransferase (Homo sapiens) (UniProt P40261); conditions: purified enzyme, MTase-Glo SAH luminescence; measured here: NNMT inhibition; at 40 µM; stronger effect = lower value
Summary of the method: as §1

[5] = molecular target: Phenylethanolamine N-methyltransferase (Homo sapiens) (UniProt P11086); conditions: purified enzyme, MTase-Glo SAH luminescence; measured here: PNMT inhibition; at 40 µM; stronger effect = lower value
Summary of the method: as §1
% is scaled to controls: 0 for no effect and ±100 for the full control effect.

Compound	activity change, negative = inhibition [1] [%]	activity change, negative = inhibition [2] [%]	activity change, negative = inhibition [3] [%]	activity change, negative = inhibition [4] [%]	activity change, negative = inhibition [5] [%]
Cn1cnc2ccc(-c3ccncc3)nc2c1=O	-8.53	-10	-4.04	-8.55	-10.9
O=C(NCC(=O)N1CCCC1)Nc1ccc2cnccc2c1	-6.37	-6.63	-5.66	-15.6	-14.2
Cc1cc(C)cc(N2CCC(N)C2=O)c1 (stereo not given)	-1.85	-1.6	0.023	-1.11	-5.37
COc1cccc(CN2C(=O)c3cc(C(C)(C)C)nn3CC2(C)C(=O)NC2CCCCC2)c1 (stereo not given)	1.51	0	5.71	2.25	2.54
O=C(NC1CCCCC1)c1ccc2c(=O)n(Cc3ccccc3)c3n[nH]c(=O)n3c2c1	-4.5	0	0.062	-22.5	-9.13
CCc1ccc(N2C(=O)c3cc4occc4n3CC2(C)C(=O)NC2CCCCC2)cc1 (stereo not given)	1.51	0	7.04	13.3	3.71
COc1ccccc1CNS(=O)(=O)c1cc2[nH]c(=O)[nH]c2cc1C	13.8	0	12.9	2.42	3.56
COc1ccccc1CNC(=O)C1(C)Cn2nc(-c3ccccc3)cc2C(=O)N1c1cccc(C)c1C (stereo not given)	2.45	3.54	6.98	5.81	-0.797
O=C1CO[C@H]2CN(Cc3ccncc3)C[C@H]2N1Cc1ccc(F)cc1	-6.14	-14.1	-4.74	-16.3	-5.72
Cc1ccc(CNC(=O)CCc2nnc3n(Cc4ccccc4Cl)c(=O)c4ccccc4n23)cc1	1.45	1.01	11.6	15.9	1.47
Cn1nc(-c2cccc(F)c2)c(N2CCCC2)c1NC(=O)NCc1ccccc1	-4.33	-0.937	-1.39	-4.26	-7.23
CCCN1C(=O)c2cc(C(=O)NCc3cccc(OC)c3OC)nn2CC1(C)C(=O)NC1CCCC1 (stereo not given)	-2.05	2.21	-1.03	-6.65	-6.64
CCc1cccc(N2C(=O)c3cc(-c4ccc(OC)cc4)nn3CC2(C)C(=O)NCc2ccccc2OC)c1 (stereo not given)	-0.529	2.22	-0.217	0.161	-7.13
CCOC(=O)c1cccc(NC(=O)c2cc3n(n2)CC(C)(C(=O)NC2CCCCC2)N(C)C3=O)c1 (stereo not given)	6.36	4.38	8.15	5.55	2.33
CC(C)(C)C(=O)N1CCC2(CC1)C(=O)N(CC(=O)Nc1cccc(Cl)c1)CN2c1ccccc1	-3.61	3.48	-1.2	-7.23	4.72
COc1ccc(N2C(=O)c3cc(-c4cccs4)nn3CC2(C)C(=O)NC2CCCCC2)cc1Cl (stereo not given)	2.5	2.69	8.4	3.8	4.48
CN(C)CC[C@@H](c1ccc(Cl)cc1)c1ccccn1	7.05	10.5	-19.1	-4.43	5.62
CN1C(=O)CC(C(=O)O)C12CCN(Cc1nc3ccsc3c(=O)[nH]1)CC2 (stereo not given)	-5	-8.08	-4.56	-15.1	-7.92
CC(C)CNC(=O)c1ccc2c(=O)n(CC(C)C)c3nn(Cc4cccc(F)c4)c(=O)n3c2c1	4.42	2.85	3.81	1.85	-2
CC1=C(COC2OC(CO)C(O)C(O)C2O)C(C(CO)C(=O)O)CC1 (stereo not given)	3.34	1.41	8.1	-12.6	-5.27
COc1ccc(-c2cc(-c3cnn(C)c3)cn3cncc23)cn1	-22.9	-3.79	-6.17	-53.2	-18.5
CC1(C(=O)NC2CCCC2)Cn2cnc(C(=O)NCc3ccccc3F)c2C(=O)N1C1CC1 (stereo not given)	-9.07	2.91	-6.18	-9.5	-9.52
COc1cc(/C=C/C(=O)O[C@@H]2C[C@@](O)(C(=O)O)C[C@@H](O)[C@@H]2O)ccc1O	4.67	7.49	6.56	-4.61	7.01
COc1ccc(-c2cc3n(n2)CC(C)(C(=O)NC2CCCCC2)N(Cc2cccs2)C3=O)cc1 (stereo not given)	-7.44	-1.56	-6.19	-13.9	-10.1
O=C(Cn1cccc1-c1nc(-c2ccccc2)no1)N1CCN(c2ccccc2)CC1	0.22	-3.14	0.752	1.51	-2.01
CCOC(=O)c1cc2n(n1)CC(C)(C(=O)NC1CCC(C)CC1)N(c1cc(Cl)ccc1C)C2=O (stereo not given)	2.4	1.67	-6.13	-2.68	11.9
CC(C)C(=O)NCC(=O)N1CCC2(CC1)Nc1ccccc1NC2=O	-3.83	-5.73	-1.52	-11.6	-9.22
CC(C)O[C@@H]1O[C@H](CO)[C@@H](O)[C@H](O)[C@H]1O	-3.08	-5.39	2.61	-13.5	-12.5
Nc1c(Br)cc(Br)cc1CNC1CCC(O)CC1 (stereo not given)	-12.4	-7.47	-9.46	-35.6	-9.35
